Measurements reported in the antibiotic and cytotoxicity screens of Wong et al. (2023).
This is one part of the list.

Experiments:
HSkMC = human skeletal muscle cells; assay: cytotoxicity call (relative viability < 0.9); conditions: 10 µM
HepG2 = assay: cytotoxicity call (relative viability < 0.9); conditions: 10 µM
S. aureus RN4220 = assay: growth inhibition call (relative growth <= 0.2); conditions: 50 µM

COC(=O)C[C@@H]1CC[C@H]2[C@@H](COC[C@H](O)CN2S(=O)(=O)c2cn(C)cn2)O1
inactive: cytotoxicity call (HSkMC) | cytotoxicity call (HepG2) | growth inhibition call (S. aureus RN4220)

C[C@H]1CN([C@@H](C)CO)C(=O)c2cc(NS(=O)(=O)c3cn(C)cn3)ccc2O[C@H]1CN(C)CC1CC1
inactive: cytotoxicity call (HSkMC) | cytotoxicity call (HepG2) | growth inhibition call (S. aureus RN4220)

COc1cccc(C#Cc2cnc3c(c2)C(=O)N([C@@H](C)CO)C[C@@H](C)[C@H](CN(C)C(=O)C2CCOCC2)O3)c1
inactive: cytotoxicity call (HSkMC) | cytotoxicity call (HepG2) | growth inhibition call (S. aureus RN4220)

C[C@H](CO)N1C[C@H](C)[C@@H](CN(C)C(=O)Nc2ccc3c(c2)OCO3)OCCCC[C@H](C)Oc2ccc(NS(=O)(=O)c3ccc(F)cc3)cc2C1=O
inactive: cytotoxicity call (HSkMC) | cytotoxicity call (HepG2) | growth inhibition call (S. aureus RN4220)

CC(C)=CCC[C@](C)(O[C@@H]1O[C@H](CO)[C@@H](O)[C@H](O)[C@H]1O)[C@H]1CC[C@]2(C)[C@@H]1[C@H](O)C[C@@H]1[C@@]3(C)CC[C@H](O)C(C)(C)[C@@H]3[C@@H](O[C@@H]3O[C@H](CO)[C@@H](O)[C@H](O)[C@H]3O[C@@H]3O[C@@H](C)[C@H](O)[C@@H](O)[C@H]3O)C[C@]12C
inactive: cytotoxicity call (HSkMC) | cytotoxicity call (HepG2) | growth inhibition call (S. aureus RN4220)

CCCC(=O)Nc1ccc2c(c1)C(=O)N(C)[C@H]1CC[C@H](CC(=O)NCCN3CCCCC3)O[C@H]1CO2
inactive: cytotoxicity call (HSkMC) | cytotoxicity call (HepG2) | growth inhibition call (S. aureus RN4220)

C[C@H](CO)N1C[C@H](C)[C@H](CN(C)C(=O)CCCN(C)C)OCCCC[C@H](C)Oc2ccc(NC(=O)Nc3cccc4ccccc34)cc2C1=O
inactive: cytotoxicity call (HSkMC) | cytotoxicity call (HepG2) | growth inhibition call (S. aureus RN4220)

C[C@@H]1CCCCO[C@H](CN(C)C(=O)Nc2ccc3c(c2)OCO3)[C@H](C)CN([C@H](C)CO)C(=O)c2cc(NS(=O)(=O)c3cccs3)ccc2O1
inactive: cytotoxicity call (HSkMC) | cytotoxicity call (HepG2) | growth inhibition call (S. aureus RN4220)

Cc1noc(C)c1S(=O)(=O)Nc1ccc2c(c1)C(=O)N([C@@H](C)CO)C[C@@H](C)[C@H](CN(C)C(=O)NC1CCCCC1)O2
inactive: cytotoxicity call (HSkMC) | cytotoxicity call (HepG2) | growth inhibition call (S. aureus RN4220)

COc1cccc(-c2ccc3c(c2)O[C@H](CN(C)Cc2cncnc2)[C@H](C)CN([C@H](C)CO)S3(=O)=O)c1
inactive: cytotoxicity call (HSkMC) | cytotoxicity call (HepG2) | growth inhibition call (S. aureus RN4220)

C[C@@H]1CCCCO[C@H](CN(C)S(=O)(=O)c2cccs2)[C@@H](C)CN([C@H](C)CO)C(=O)c2cc(NS(C)(=O)=O)ccc2O1
inactive: cytotoxicity call (HSkMC) | cytotoxicity call (HepG2) | growth inhibition call (S. aureus RN4220)

Cc1noc(C)c1S(=O)(=O)N(C)C[C@@H]1OCCCC[C@@H](C)Oc2ccc(NC(=O)Nc3ccc(F)cc3)cc2C(=O)N([C@@H](C)CO)C[C@H]1C
inactive: cytotoxicity call (HSkMC) | cytotoxicity call (HepG2) | growth inhibition call (S. aureus RN4220)

Cc1noc(C)c1S(=O)(=O)Nc1ccc2c(c1)CC(=O)N([C@H](C)CO)C[C@@H](C)[C@H](CN(C)C(=O)Nc1ccc3c(c1)OCO3)O2
inactive: cytotoxicity call (HSkMC) | cytotoxicity call (HepG2) | growth inhibition call (S. aureus RN4220)
